The results in this text go back to the supplement of paper PMC10126150.

Sequences with one replicate were seen in a single cluster, so their values are uncertain.

The subject of this data set is ATP. Briefly: switch fluorescence ratio, 500 uM ATP over buffer (Cy3 cluster intensity, sum of 5 cycles each) (fold (ratio)); higher = stronger signal-on switching upon ATP binding; sequences stand for … in TCGTCGGCAGCGTCAGATGTGTATAAGAGACAGTTTTTTTTTTTTTTTTTTTTTTTTT…TC. The settings on record: aptamer strand: ATP DNA aptamer (quencher-CACCTGGGGGAGTATTGCGGAGGAAGG + anchor), 100 nM annealed; ATP concentration: 500 uM; one replicate. Summed up: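 Values give the fluorescence ratio for each switch-domain sequence, averaged from per-cluster ratios of summed target-cycle to summed buffer-cycle Cy3 intensity. The Cy3-labelled switching-strand clusters sat on a modified Illumina MiSeq flow-cell, were annealed to 100 nM quencher-labelled ATP aptamer, and were imaged in selection buffer, then after 15 min with 500 uM ATP at 22 °C. Five cycles ran with NaOH stripping and re-annealing between them, and clusters outside 100-1000 RFU were excluded.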
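Note: ATP exposure 15 min at 22 °C before imaging.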

As to TTGAGCTTTG, the switch fluorescence ratio amounted to 1.02.

Consider CATTCACTC, for which the switch fluorescence ratio is 1.07.

Take TAAATTAAAA: the switch fluorescence ratio was found to be 0.959.

On to TCTACCACTA, for which the switch fluorescence ratio came to 0.987.

Consider GGTATGACGG, for which the switch fluorescence ratio is 0.973.

For the sequence ACGCCTAGTT, the switch fluorescence ratio came out at 1.02.

Consider CCGAAAGTGA, for which the switch fluorescence ratio is 2.37.

For the sequence AAGTCCTAAG, the switch fluorescence ratio was 0.99.

Consider CATCTCCAAC, for which the switch fluorescence ratio is 1.08.

With TTAGTTCAAT, the switch fluorescence ratio came to 0.972.

Turning to CAGCGGAGTG, the switch fluorescence ratio is 0.951.

As for ACATTTCAGC, the switch fluorescence ratio was found to be 1.03.

Regarding TAACGCCTGG, the switch fluorescence ratio worked out at 1.01.

Take GGCGTTTGCA: the switch fluorescence ratio was 0.971.

As to CGTTTTGGG, the switch fluorescence ratio worked out at 0.977.

As for ATTAGGGATG, the switch fluorescence ratio came to 0.95.

Consider CTCTGCACAC, for which the switch fluorescence ratio was found to be 1.31.

As for GGATTTCCCC, the switch fluorescence ratio was 1.02.

On to AGCGTTGACC, for which the switch fluorescence ratio was determined as 1.01.

In the case of CCAGTGCGTT, the switch fluorescence ratio was 1.02.

As to AGCGAACCGA, the switch fluorescence ratio is 1.11.

Take TTAACTAGTA: the switch fluorescence ratio was determined as 0.989.

For ACCTTAGATC, the switch fluorescence ratio was 1.1.

For CGTGTTAATC, the switch fluorescence ratio was 1.

Turning to GGGGGATCCC, the switch fluorescence ratio was 0.993.

In the case of TAGAGCTATC, the switch fluorescence ratio stood at 1.05.

On to CGGTGTACCG, for which the switch fluorescence ratio was 0.951.

For the sequence CGCGGTTCG, the switch fluorescence ratio is 1.03.

Take ATTCGCCCAC: the switch fluorescence ratio worked out at 1.17.

In the case of TGACACTCAG, the switch fluorescence ratio was found to be 1.03.

Take ACGGATAGCG: the switch fluorescence ratio was 0.98.

Take CGGAAGAGGA: the switch fluorescence ratio came out at 0.983.

Consider TAACTTGGTT, for which the switch fluorescence ratio stood at 1.09.

In the case of AAAAAAATCT, the switch fluorescence ratio came out at 1.03.

For TTCAGACAGA, the switch fluorescence ratio came to 0.982.

As to GCTTGGTTGG, the switch fluorescence ratio was determined as 0.961.

For GACATTGCAC, the switch fluorescence ratio stood at 1.09.

On to TTGCGCAAC, for which the switch fluorescence ratio worked out at 1.01.

For AAATATTCG, the switch fluorescence ratio worked out at 0.955.

As to ATTATTGGAT, the switch fluorescence ratio came to 1.01.

For GATTCGCAAC, the switch fluorescence ratio was found to be 4.41.

GGGCTGCGGT: the switch fluorescence ratio is 0.968.

Turning to GGAATTCGTT, the switch fluorescence ratio is 0.969.

Turning to TAGCATTCGC, the switch fluorescence ratio was 1.04.

GGCCTGCTA: the switch fluorescence ratio is 0.999.

For CTACTCCGAG, the switch fluorescence ratio is 1.33.

As for AGTGTCTATA, the switch fluorescence ratio was determined as 0.968.

On to TGGTTCGGTC, for which the switch fluorescence ratio came out at 1.09.

Turning to GCGGGAGTGT, the switch fluorescence ratio was found to be 1.

As to ACCTTAAGCC, the switch fluorescence ratio was 1.1.

Take GGGCCAGCGT: the switch fluorescence ratio is 0.94.

Take CGACTTCAGG: the switch fluorescence ratio stood at 1.03.

Regarding TGCATTGAGC, the switch fluorescence ratio was found to be 1.07.

As to CTGGGGTAGA, the switch fluorescence ratio worked out at 1.06.

As to AGTCAAACCA, the switch fluorescence ratio stood at 1.02.

For the sequence AAGACCCTTC, the switch fluorescence ratio is 1.06.

For the sequence GGGGACAGCG, the switch fluorescence ratio amounted to 0.981.

Consider GATTGGTGAT, for which the switch fluorescence ratio is 0.997.

TACAAGGCGG: the switch fluorescence ratio is 1.03.

For the sequence GATACTGAAT, the switch fluorescence ratio came out at 1.04.

For the sequence CCATGGCGTA, the switch fluorescence ratio worked out at 1.05.

As for AAGTGGCCTT, the switch fluorescence ratio worked out at 0.981.

As to GATCACCCAT, the switch fluorescence ratio came out at 1.01.

With CTACGCCCAT, the switch fluorescence ratio is 3.21.

As to TATTATAGCC, the switch fluorescence ratio came to 1.03.

Take CATAGCGGCA: the switch fluorescence ratio was determined as 1.02.

Take TTGTGCATGT: the switch fluorescence ratio was 0.98.

As to CTTGTTTCG, the switch fluorescence ratio is 0.982.

Turning to TTAAGACCGC, the switch fluorescence ratio is 1.

Turning to AAGAATAGTC, the switch fluorescence ratio stood at 0.931.

With CTTTCA, the switch fluorescence ratio was found to be 1.01.

For the sequence TGGCGAATCA, the switch fluorescence ratio is 0.968.

As to TTAACAACTT, the switch fluorescence ratio was determined as 1.03.

Take GTGGCCAAGG: the switch fluorescence ratio is 1.04.

With GCCCTGGTAA, the switch fluorescence ratio was 0.987.

Consider ATAAAAATTA, for which the switch fluorescence ratio was determined as 0.979.

As to CCATCCATGA, the switch fluorescence ratio amounted to 1.04.

Take GGTTTTAAAC: the switch fluorescence ratio was 0.995.

Consider CCTTGTTGGT, for which the switch fluorescence ratio amounted to 1.03.

Consider GGACTCGGCC, for which the switch fluorescence ratio is 0.99.

Turning to GGCGCAGGCG, the switch fluorescence ratio is 1.01.

For the sequence TTATAGTATA, the switch fluorescence ratio was 1.03.

In the case of AACTTCTC, the switch fluorescence ratio amounted to 1.15.

Turning to TCGGCAACTT, the switch fluorescence ratio was 1.03.

In the case of TTACGATGCA, the switch fluorescence ratio stood at 1.12.

For the sequence ATTGCTTT, the switch fluorescence ratio turned out to be 1.01.

Consider AATGAAGACA, for which the switch fluorescence ratio came out at 1.03.

ACACTAGAGG: the switch fluorescence ratio turned out to be 1.06.

TTTACCTTAA: the switch fluorescence ratio stood at 1.59.

For ACCCCGTCCC, the switch fluorescence ratio is 1.11.

In the case of TTTCAGACTG, the switch fluorescence ratio is 1.07.

GTTGCCTGAC: the switch fluorescence ratio amounted to 1.36.

For the sequence CGGATCTTCA, the switch fluorescence ratio came to 1.03.

Consider CTCTTGTATG, for which the switch fluorescence ratio turned out to be 0.989.

For the sequence AGGTTTGGTC, the switch fluorescence ratio is 1.01.

AAGAATCGAG: the switch fluorescence ratio was 0.995.

On to CAAACATCGG, for which the switch fluorescence ratio amounted to 1.01.

In the case of GTGTAATTCG, the switch fluorescence ratio worked out at 0.982.

With GAGCATTCCC, the switch fluorescence ratio amounted to 1.18.

GTGGGGCAAG: the switch fluorescence ratio was determined as 1.02.

For the sequence TGTGACAAAC, the switch fluorescence ratio was determined as 1.07.

Turning to CCGCTGTAGT, the switch fluorescence ratio was determined as 1.97.

ACATGTGTT: the switch fluorescence ratio is 0.984.

With GCATTGCCTG, the switch fluorescence ratio is 0.944.

Turning to GAACAGGTCG, the switch fluorescence ratio turned out to be 1.03.

Turning to TATGTAAAT, the switch fluorescence ratio was 0.998.

Take GAGTGCGGGG: the switch fluorescence ratio came out at 1.02.

For the sequence GTTCTCGATG, the switch fluorescence ratio came to 0.946.

Turning to TGACGTGGCA, the switch fluorescence ratio was found to be 1.02.

GAAGGAAGGG: the switch fluorescence ratio was 1.04.

In the case of ATTAGCTAAA, the switch fluorescence ratio was determined as 1.02.

Turning to AGCAAAGATC, the switch fluorescence ratio is 0.96.

For the sequence CCCCGTTCGT, the switch fluorescence ratio came out at 1.09.

For TGCCACGAGG, the switch fluorescence ratio stood at 1.04.

GTCCTATAGA: the switch fluorescence ratio worked out at 0.967.

Consider AACTAAGCGG, for which the switch fluorescence ratio was 0.988.

On to TCGGAGGACC, for which the switch fluorescence ratio turned out to be 1.04.

For TCATTGAAA, the switch fluorescence ratio came out at 1.02.

In the case of TGTGGGAT, the switch fluorescence ratio amounted to 1.01.

CAAGGGTTAG: the switch fluorescence ratio was 0.988.
